Cytotoxicity call and growth inhibition call data for 29 compounds are collected here from the antibiotic and cytotoxicity screens of Wong et al. (2023).

The list shows a part of the results.

For one assay, the system named is HSkMC. Briefly: cytotoxicity call (relative viability < 0.9). Particulars: 10 µM.
Another assay has as its system HepG2. Briefly: cytotoxicity call (relative viability < 0.9). The settings on record: 10 µM.
A further assay has as its system S. aureus RN4220. Briefly: growth inhibition call (relative growth <= 0.2). Particulars: 50 µM.

In the case of `CO[C@H]1CN(C)C(=O)c2cc(NS(=O)(=O)c3cn(C)cn3)ccc2OC[C@H](C)N(CC2CC2)C[C@@H]1C`, the cytotoxicity call in the assay with HSkMC and with HepG2 was “inactive” in each case. In the assay with S. aureus RN4220, the growth inhibition call was “inactive”.
Take `Cc1ccc(S(=O)(=O)N(C)C[C@@H]2Oc3ncc(C#CC4(O)CCCC4)cc3C(=O)N([C@H](C)CO)C[C@H]2C)cc1`: the cytotoxicity call in the assay with HSkMC and in the assay on HepG2 was “inactive” in each case. In addition, the growth inhibition call in the assay on S. aureus RN4220 is “inactive”.
In the case of `CS(=O)(=O)N1C[C@H]2C[C@@H](F)[C@@H](O)[C@@H]2C1`, the cytotoxicity call in the assay with HSkMC and in the assay on HepG2 was “inactive” in each case. Also, in the assay on S. aureus RN4220, the growth inhibition call is “inactive”.
As to `CC(C)CS(=O)(=O)C1CNC1`, the cytotoxicity call in the assay on HSkMC and in the assay on HepG2 was “inactive” each time. In addition, the growth inhibition call in the assay on S. aureus RN4220 was “inactive”.
`COC(=O)c1ccc2c(c1)NC(=O)CO2`: the cytotoxicity call in the assay with HSkMC and in the assay with HepG2 was “inactive” in each case. Further, in the assay on S. aureus RN4220, the growth inhibition call was “inactive”.
`C[C@@H]1CN([C@@H](C)CO)C(=O)c2cc(NC(=O)Cc3ccccc3)ccc2O[C@@H](C)CCCCO[C@H]1CN(C)Cc1ccc(C(=O)O)cc1`: the cytotoxicity call in the assay on HSkMC and in the assay with HepG2 was “inactive” in each case. Also, the growth inhibition call in the assay on S. aureus RN4220 is “inactive”.
As to `C[C@H]1CN([C@@H](C)CO)C(=O)Cc2cc(NC(=O)Cc3ccccc3)ccc2O[C@H]1CN(C)Cc1ccc(Cl)c(Cl)c1`, in the assay with HSkMC, the cytotoxicity call was “inactive”. In addition, the cytotoxicity call with HepG2 is “active”. The growth inhibition call in the assay on S. aureus RN4220 was “inactive”.
Turning to `CC(C)N1CC[C@H](CN(C)Cc2ccc(Oc3ccccc3)cc2)Oc2c(NC(=O)c3ccncc3)cccc2C1=O`, the cytotoxicity call in the assay with HSkMC and with HepG2 was “inactive” throughout. In the assay on S. aureus RN4220, the growth inhibition call was “inactive”.
On to `C=CCNC(=O)[C@H]1[C@@H]2C(=O)O[C@@H](c3ccccc3)[C@@H](c3ccccc3)N2[C@@H](c2ccc(O)cc2)[C@]12C(=O)N(C(=O)OCCOC)c1ccc(C#CC3(O)CCCCCC3)cc12`, for which the cytotoxicity call in the assay on HSkMC and with HepG2 was “inactive” in each case. In the assay on S. aureus RN4220, the growth inhibition call was “inactive”.
With `COc1ccc(S(=O)(=O)Nc2cccc3c2O[C@H](CN(C)Cc2ccncc2)[C@@H](C)CN([C@@H](C)CO)C3=O)cc1`, the cytotoxicity call with HSkMC and with HepG2 was “inactive” each time. Besides, the growth inhibition call in the assay on S. aureus RN4220 was “inactive”.
For the compound `O=C(CN1CCOCC1)NCC[C@@H]1CC[C@@H](NC(=O)Nc2ccccc2)[C@@H](CO)O1`, the cytotoxicity call in the assay with HSkMC and in the assay with HepG2 was “inactive” throughout. Further, in the assay with S. aureus RN4220, the growth inhibition call was “inactive”.
For `C[C@H]1CCCCO[C@H](CN(C)CC2CCCCC2)[C@@H](C)CN([C@@H](C)CO)C(=O)c2cc(NC(=O)NC3CCCCC3)ccc2O1`, the cytotoxicity call in the assay on HSkMC was “inactive”. The cytotoxicity call with HepG2 was “active”. In addition, in the assay on S. aureus RN4220, the growth inhibition call was “inactive”.
Consider `C=C(c1ccc(C(=O)O)cc1)c1cc2c(cc1C)C(C)(C)CCC2(C)C`, for which the cytotoxicity call with HSkMC and in the assay on HepG2 was “inactive” in each case. The growth inhibition call in the assay on S. aureus RN4220 was “inactive”.
Consider `CCCNC(=O)N1C[C@@H](O)COC[C@H]2O[C@H](CC(=O)NCCCN3CCOCC3)CC[C@@H]21`, for which the cytotoxicity call with HSkMC and in the assay on HepG2 was “inactive” in each case. For the same compound, the growth inhibition call in the assay on S. aureus RN4220 is “inactive”.
`COc1cc(OC)cc(C(=O)OCCN2CCN(CCOC(=O)c3cc(OC)cc(OC)c3)CC2)c1`: the cytotoxicity call with HSkMC and in the assay with HepG2 was “inactive” throughout. Moreover, the growth inhibition call in the assay on S. aureus RN4220 is “inactive”.
For the compound `COCC#Cc1cnc2c(c1)C(=O)N([C@H](C)CO)C[C@@H](C)[C@H](CN(C)C(=O)Nc1cc(F)ccc1F)O2`, the cytotoxicity call with HSkMC and in the assay on HepG2 was “inactive” throughout. The growth inhibition call with S. aureus RN4220 is “inactive”.
Consider `CN1CCN(C(=O)C[C@@H]2C=C[C@@H](NC(=O)Nc3ccccc3F)[C@H](CO)O2)CC1`, for which the cytotoxicity call with HSkMC and with HepG2 was “inactive” throughout. Besides, in the assay on S. aureus RN4220, the growth inhibition call was “inactive”.
As for `C[C@@H]1CN([C@H](C)CO)C(=O)CCCn2cc(nn2)CO[C@@H]1CN(C)S(=O)(=O)c1ccc(-c2ccccc2)cc1`, the cytotoxicity call in the assay on HSkMC and with HepG2 was “inactive” in each case. Also, in the assay on S. aureus RN4220, the growth inhibition call is “inactive”.
Turning to `O=C(NCC(F)(F)F)[C@H]1[C@H](CO)[C@H]2Cn3c(cccc3=O)[C@H]2N1C(=O)C1CCC1`, the cytotoxicity call in the assay on HSkMC and in the assay on HepG2 was “inactive” in each case. For the same compound, the growth inhibition call in the assay on S. aureus RN4220 was “inactive”.
In the case of `C[C@H]1CCCCO[C@H](CN(C)C(=O)Nc2cccc3ccccc23)[C@@H](C)CN([C@@H](C)CO)C(=O)c2cc(N(C)C)ccc2O1`, the cytotoxicity call with HSkMC and with HepG2 was “inactive” in each case. Besides, the growth inhibition call with S. aureus RN4220 was “inactive”.
On to `C=CCNC(N)=S`, for which the cytotoxicity call with HSkMC and in the assay on HepG2 was “inactive” each time. Further, in the assay on S. aureus RN4220, the growth inhibition call is “inactive”.
Regarding `COc1ccc(NC(=O)N(C)C[C@H]2OCCCC[C@@H](C)Oc3ccc(NS(=O)(=O)c4ccccc4)cc3C(=O)N([C@H](C)CO)C[C@H]2C)cc1`, the cytotoxicity call in the assay on HSkMC and in the assay with HepG2 was “inactive” throughout. Further, the growth inhibition call with S. aureus RN4220 was “inactive”.
Regarding `C[C@@H]1CN([C@@H](C)CO)C(=O)c2cc(NC(=O)C3CC3)ccc2O[C@H]1CN(C)C(=O)Nc1ccc2c(c1)OCO2`, the cytotoxicity call with HSkMC and in the assay on HepG2 was “inactive” in each case. The growth inhibition call with S. aureus RN4220 was “inactive”.
As to `CC[C@@H](C)c1ccc(NC(=O)c2cc3ccccc3o2)cc1`, the cytotoxicity call in the assay with HSkMC and in the assay on HepG2 was “inactive” in each case. In the assay with S. aureus RN4220, the growth inhibition call is “inactive”.
For the compound `COc1ccc2c3c([nH]c2c1)[C@@H](CO)N(C[C@]13CCN(CC1)CC1CCCC1)S(=O)(=O)c1cn(cn1)C`, the cytotoxicity call with HSkMC and in the assay on HepG2 was “inactive” in each case. Moreover, in the assay with S. aureus RN4220, the growth inhibition call was “inactive”.
Consider `C[C@@H]1CN([C@H](C)CO)C(=O)c2cc(NC(=O)NC3CCCCC3)ccc2O[C@@H](C)CCCCO[C@H]1CN(C)S(=O)(=O)c1cccs1`, for which the cytotoxicity call with HSkMC and with HepG2 was “inactive” throughout. In the assay with S. aureus RN4220, the growth inhibition call was “inactive”.
In the case of `COC(CNC(=O)C(=O)NC[C@H]1OCCN1C(=O)c1ccc2c(c1)OCO2)OC`, the cytotoxicity call in the assay with HSkMC and in the assay on HepG2 was “inactive” throughout. Moreover, the growth inhibition call with S. aureus RN4220 is “inactive”.
As for `O=C(C[C@@H]1C=C[C@@H](NS(=O)(=O)c2ccccc2F)[C@H](CO)O1)NCCCN1CCOCC1`, the cytotoxicity call in the assay with HSkMC and with HepG2 was “inactive” throughout. For the same compound, the growth inhibition call in the assay on S. aureus RN4220 was “inactive”.
Take `COc1ccc(CCNC(=O)c2cc3c(=O)n4cccc(C)c4nc3n(CCCN3CCOCC3)c2=N)cc1`: the cytotoxicity call in the assay on HSkMC (human skeletal muscle cells) was “inactive”. In the assay with HepG2, the cytotoxicity call is “active”. In addition, the growth inhibition call in the assay with S. aureus RN4220 was “inactive”.
